Reference: article PMC4336329 (PLoS ONE, 2015)
The campaign covered roughly 310,000 compounds. About 2,200 (0.71%) showed an effect of 50% or more. The effect is printed as a negative number. Some of the results follow.

The compounds below were run against human ether-à-go-go-related gene (hERG) potassium channel (human, UniProt Q12809) (assay: primary screen, population patch clamp on CHO cells stably expressing hERG).
Chain of human ether-à-go-go-related gene (hERG) potassium channel (Q12809 whole entry, looked up): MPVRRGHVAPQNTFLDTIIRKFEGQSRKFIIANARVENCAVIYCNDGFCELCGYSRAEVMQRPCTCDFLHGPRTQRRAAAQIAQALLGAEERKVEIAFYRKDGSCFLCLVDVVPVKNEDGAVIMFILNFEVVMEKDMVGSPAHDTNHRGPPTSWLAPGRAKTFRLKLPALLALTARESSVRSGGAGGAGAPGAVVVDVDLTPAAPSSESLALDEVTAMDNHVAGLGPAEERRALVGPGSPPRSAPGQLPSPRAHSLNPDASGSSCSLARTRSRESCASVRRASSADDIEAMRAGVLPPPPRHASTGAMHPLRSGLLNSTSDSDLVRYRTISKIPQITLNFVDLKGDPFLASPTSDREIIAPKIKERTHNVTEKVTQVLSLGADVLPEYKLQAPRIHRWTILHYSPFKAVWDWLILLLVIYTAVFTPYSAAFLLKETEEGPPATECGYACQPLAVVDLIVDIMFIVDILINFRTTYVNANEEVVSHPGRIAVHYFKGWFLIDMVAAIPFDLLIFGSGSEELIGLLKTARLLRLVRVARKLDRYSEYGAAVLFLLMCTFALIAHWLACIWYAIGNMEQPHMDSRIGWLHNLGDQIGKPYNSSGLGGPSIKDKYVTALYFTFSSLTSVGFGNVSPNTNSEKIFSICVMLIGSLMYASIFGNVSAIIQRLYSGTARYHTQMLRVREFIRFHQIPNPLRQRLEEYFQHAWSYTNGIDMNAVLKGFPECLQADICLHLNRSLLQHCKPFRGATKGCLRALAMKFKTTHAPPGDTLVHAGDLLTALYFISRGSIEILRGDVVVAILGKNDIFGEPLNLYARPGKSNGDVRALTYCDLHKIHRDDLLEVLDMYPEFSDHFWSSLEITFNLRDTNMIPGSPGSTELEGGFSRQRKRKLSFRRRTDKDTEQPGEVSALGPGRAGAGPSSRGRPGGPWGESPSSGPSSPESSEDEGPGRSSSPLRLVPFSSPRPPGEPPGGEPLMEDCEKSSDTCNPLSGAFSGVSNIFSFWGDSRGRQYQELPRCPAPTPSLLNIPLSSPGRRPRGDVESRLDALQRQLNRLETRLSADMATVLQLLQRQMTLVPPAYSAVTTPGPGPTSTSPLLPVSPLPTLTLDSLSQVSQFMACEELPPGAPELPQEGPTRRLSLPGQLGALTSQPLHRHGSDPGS

Row | SMILES | hERG current change (%, negative = inhibition) at 1uM
1 | CCCCC/C=C\C/C=C\C/C=C\C/C=C\CCCC(=O)O | 21.2%
2 | CCc1cccc(NS(=O)(=O)c2ccc3c(c2)n(C)c(=O)n3C)c1 | 19.3%
3 | COc1ccc(NC(=O)c2ccccc2-c2ccccc2C(=O)O)cc1 | 5.69%
4 | CCOc1ccccc1NC(=O)CSc1nncc2ccccc12 | 1.9%
5 | Cc1nc2ccccc2c(=O)n1/N=C/c1ccccc1Cl | 12.2%
6 | CC(NC(=O)C1CCCCC1)C(c1cccs1)N1CCN(C)CC1 (stereo not drawn) | 6.45%
7 | CCOC(=O)N1CCN(C(=O)C2c3cc(OC)c(OC)cc3C(=O)N3CCc4ccccc4C23)CC1 (stereo not drawn) | 13.9%
8 | COc1cccc(N2CC(C(=O)Nc3nnc(SCC(=O)c4ccccc4)s3)CC2=O)c1 (stereo not drawn) | 7.45%
9 | O=C(NCN1CCc2ccccc2C1)c1ccccc1 | -4%
10 | Cc1ccc2nc(SCC(=O)NCc3ccccc3)nc(=O)n2c1 | -1.55%
11 | COc1ccc(N(C(=O)c2snc(C(N)=O)c2N)C(C(=O)NC2CCCC2)c2ccc(F)cc2)c(OC)c1 (stereo not drawn) | 4.5%
12 | COc1ccc(CNC(=O)C2CC(c3ccccc3C(F)(F)F)=NO2)cc1 (stereo not drawn) | 1.74%
13 | CCOC(=O)CC(NC(C)=O)c1ccc([N+](=O)[O-])cc1 (stereo not drawn) | 8.5%
14 | COc1ccc(OC)c(NC(=O)C2CCCN(S(=O)(=O)c3c(C)nn(C)c3C)C2)c1 (stereo not drawn) | 15.9%
15 | CCOc1ccc(NC(=O)CN(C)C(=O)C2CC(=O)N(c3ccc4c(c3)OCCO4)C2)cc1OCC (stereo not drawn) | -4.28%
16 | Cc1c(O)ccc(NC(=O)/C=C/c2ccccc2)c1C | 10.9%
17 | O=C1C2Sc3[nH]c(=O)sc3C(c3ccccc3)C2C(=O)N1c1ccc(Cl)cc1 (stereo not drawn) | 10.4%
18 | Cc1cc(C)nc(Sc2ccc(C=O)cc2[N+](=O)[O-])n1 | 11.8%
19 | CN(C)C(=O)N1CCN(C(=O)c2ccco2)CC1 | 4.67%

Row | SMILES | hERG current change (%, negative = inhibition) at 1uM
20 | CCCCCCCC(=O)N/N=C/c1ccc([N+](=O)[O-])o1 | 5.65%
21 | COc1ccc(C)cc1NC(=O)CSc1nc(SC)ns1 | 17.8%
22 | CCC(C)NC(=O)C1CCN(S(=O)(=O)c2cc([N+](=O)[O-])ccc2Cl)CC1 (stereo not drawn) | 12.9%
23 | CSc1nc2sc3c(c2c(=O)n1CC(C)C)CC(C)(C)OC3 | 14.4%
24 | CN(C)c1nc(N(C)C)nc(N(C#N)CN2C(=O)c3ccccc3S2(=O)=O)n1 | 2.13%
25 | CS(=O)(=O)Cc1ccc(C(=O)N(CCc2ccccc2)Cc2ccccc2)cc1 | 0.11%
26 | Cc1ccc(SCC(=O)NC(=O)Nc2ccc3c(c2)OCCO3)cc1C | -2.83%
27 | COc1ccc(Oc2ncnc3sccc23)cc1 | 11.3%
28 | Cc1ccccc1Sc1ncccc1[N+](=O)[O-] | 7.38%
29 | CCN(CC)c1nc(C(N)=O)cc(-c2ccccc2)n1 | 13.4%
30 | O=C1C=CC(=O)N1 | 14.7%
31 | CCCCNC(=O)c1cc(-c2ccc(OC)c(OC)c2)on1 | 5.84%
32 | COC(=O)CSC1=C(C#N)C(=O)NC2(CCCCC2)S1 | 15.7%
33 | O=C(CSc1nnc(-c2ccc(Cl)cc2)o1)N1CCOCC1 | 7.55%
34 | O=C(c1ccc(NS(=O)(=O)c2ccc(F)cc2)cc1)N1CCCCC1 | 13.1%
35 | O=[N+]([O-])c1cc2c(c(CSc3nnnn3-c3ccc(O)cc3)c1)OCOC2 | 1.25%
36 | CN(CC(=O)NCc1ccc(F)cc1)Cc1cccc(Cl)c1 | 15.7%
37 | CCOC(=O)c1ccccc1Nc1cc(C)nc2nc(C)nn12 | 2.17%
38 | CC(C)[C@@H](C(=O)N1CCCC1)N1C(=O)N2CCc3c([nH]c4ccccc34)[C@@]2(C)C1=O | 5.78%

Row | SMILES | hERG current change (%, negative = inhibition) at 1uM
39 | CC(C#N)(NC(=O)CN1CCN(S(=O)(=O)c2ccccc2Cl)CC1)C1CC1 (stereo not drawn) | 13.2%
40 | CCOC(=O)c1c(NC(=O)COC(=O)c2ncc(Cl)c(Cl)c2Cl)sc(C(=O)N(C)C)c1C | 10.5%
41 | COc1ccc(S(=O)(=O)Cc2ccc(C(=O)NCCc3cc(OC)ccc3OC)o2)cc1 | 6.85%
42 | c1ccc(Oc2cc(-c3ccccc3)nc(-c3ccccc3)n2)cc1 | -0.445%
43 | Cc1ccc(Cn2ccc(NC(=O)c3noc4c3CCCCC4)n2)cc1 | 9.2%
44 | CC(C)Sc1nc2ncnc(N)c2[nH]1 | 19.9%
45 | CCOC(=O)c1ccccc1NC(=O)c1ccc2c(=O)n3c(nc2c1)CCCCC3 | -1.04%
46 | CCn1c(Cc2ccccc2)nnc1SCC(=O)Nc1ccc(N)cc1 | 11%
47 | N#C/C(=C(/O)CN1CCCC1)c1nc(-c2ccccc2)cs1 | 7.19%
48 | COc1ccc([C@H]2CC(=O)c3c(O)cc(O)cc3O2)cc1O | 13.8%
49 | Cc1noc(C)c1COc1ccc(C(=O)OCC(=O)Nc2ccc3c(c2)OCO3)cc1 | 9.19%
50 | Cc1ccc(C(=O)O/N=C(\N)c2cccnc2)cc1[N+](=O)[O-] | 3.56%
51 | COc1ccc(Cl)cc1N1CC(c2nc3ccccc3[nH]2)CC1=O (stereo not drawn) | -20.9%
52 | CN(C)c1ccc(NC(=O)c2cccc(N3C(=O)C4C5C=CC(C5)C4C3=O)c2)cc1 (stereo not drawn) | 15.7%
53 | O=C(COC(=O)/C=C/c1cccs1)Nc1cccc(S(=O)(=O)N2CCCC2)c1 | 9.42%
54 | Cc1ccc(C(=O)COC(=O)c2ccc(Cl)c(N)c2)s1 | 14.7%
55 | Cl.O=C(NCCCn1ccnc1)c1ccc(S(=O)(=O)N2CCOCC2)cc1 | 10.4%
56 | O=Cc1c[nH]c2ccc(OCc3ccccc3)cc12 | 14%
57 | COC(=O)C1=C(c2cc3ccccc3o2)C[C@@H]2CC[C@H]1N2C(=O)NCCNC(C)=O | 11.2%
